# Reference: the supplement of paper PMC8728848
# This is one part of the list.
# B1: Als3-N (Candida albicans) (protein)
# chain: KTITGVFNSFNSLTWSNAATYNYKGPGTPTWNAVLGWSLDGTSASPGDTFTLNMPCVFKFTTSQTSVDLTAHGVKYATCQFQAGEEFMTFSTLTCTVSNTLTPSIKALGTVTLPLAFNVGGTGSSVDLEDSKCFTAGTNTVTFNDGGKKISINVDFERSNVDPKGYLTDSRVIPSLNKVSTLFVAPQCANGYTSGTMGFANTYGDVQIDCSNIHVGITKGLNDWNYPVSSESFSYTKTCSSNGIFITYKNVPAGYRPFVDAYISATDVNSYTLSYANEYTCAGGYWQRAPFTLRWTGYRNSDAGSNGIVIVATTRTVTDSTTAVTTLPFDPNRDKTKTIEILKPIPTTTITTSYVGVTTSYLTKTAPIGETATVIVDIPYHTTTTVTSKWTGTITSTTTHTNPTDSIDTVIVQVP
# How the values were obtained:
# Test in all cases: glycan array binding signal (z-score within array); higher = stronger binding
# Settings in all cases: glycan notation: IUPAC condensed, linker removed
# Gal(a1-3)Gal = target: Gal(a1-3)Gal
# Outline: (§1)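 Glycan array data were curated from 3228 arrays in the Consortium for Functional Glycomics database and kept only where the protein sequence was available. Glycan names were converted to IUPAC-condensed notation, and columns mapping to the same glycan were averaged. The binding signal is a within-array Z-score, averaged across arrays of the same protein sequence at different concentrations or buffers and across linkers. Negative Z-scores can be read as non-binding.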
# Gal(a1-3)Gal(b1-3)GlcNAc = target: Gal(a1-3)Gal(b1-3)GlcNAc
# Outline: as §1
# [1] = target: Gal(a1-3)Gal(b1-3)GlcNAc(b1-2)Man
# Outline: as §1
# [2] = target: Gal(a1-3)Gal(b1-3)GlcNAc(b1-2)Man(a1-3)[Gal(a1-3)Gal(b1-3)GlcNAc(b1-2)Man(a1-6)]Man(b1-4)GlcNAc(b1-4)GlcNAc
# Outline: as §1
# [3] = target: Gal(a1-3)Gal(b1-3)GlcNAc(b1-3)GalNAc
# Outline: as §1
# [4] = target: Gal(a1-3)Gal(b1-3)GlcNAc(b1-6)GalNAc
# Outline: as §1
# [5] = target: Gal(a1-3)Gal(b1-3)[Fuc(a1-4)]GlcNAc(b1-2)Man(a1-3)[Gal(a1-3)Gal(b1-3)[Fuc(a1-4)]GlcNAc(b1-2)Man(a1-6)]Man(b1-4)GlcNAc(b1-4)GlcNAc
# Outline: as §1
# Gal(a1-3)Gal(b1-4)Glc = target: Gal(a1-3)Gal(b1-4)Glc
# Outline: as §1
# Gal(a1-3)Gal(b1-4)GlcNAc = target: Gal(a1-3)Gal(b1-4)GlcNAc
# Outline: as §1
# [6] = target: Gal(a1-3)Gal(b1-4)GlcNAc(b1-2)Man
# Outline: as §1
# [7] = target: Gal(a1-3)Gal(b1-4)GlcNAc(b1-2)Man(a1-3)[Gal(a1-3)Gal(b1-4)GlcNAc(b1-2)Man(a1-6)]Man(b1-4)GlcNAc(b1-4)GlcNAc
# Outline: as §1
# [8] = target: Gal(a1-3)Gal(b1-4)GlcNAc(b1-3)GalNAc
# Outline: as §1
# [9] = target: Gal(a1-3)Gal(b1-4)GlcNAc(b1-6)GalNAc
# Outline: as §1
# [10] = target: Gal(a1-3)Gal(b1-4)[Fuc(a1-3)]GlcNAc
# Outline: as §1
# [11] = target: Gal(a1-3)Gal(b1-4)[Fuc(a1-3)]GlcNAc(b1-2)Man(a1-3)[Gal(a1-3)Gal(b1-4)[Fuc(a1-3)]GlcNAc(b1-2)Man(a1-6)]Man(b1-4)GlcNAc(b1-4)GlcNAc
# Outline: as §1
# Gal(a1-3)GalNAc = target: Gal(a1-3)GalNAc
# Outline: as §1
# [12] = target: Gal(a1-3)[Gal(a1-4)]Gal(b1-4)GlcNAc
# Outline: as §1
# [13] = target: Gal(a1-4)Gal(b1-3)GlcNAc(b1-2)Man(a1-3)[Gal(a1-4)Gal(b1-3)GlcNAc(b1-2)Man(a1-6)]Man(b1-4)GlcNAc(b1-4)GlcNAc
# Outline: as §1
# Gal(a1-4)Gal(b1-4)Glc = target: Gal(a1-4)Gal(b1-4)Glc
# Outline: as §1
# Gal(a1-4)Gal(b1-4)GlcNAc = target: Gal(a1-4)Gal(b1-4)GlcNAc
# Outline: as §1
# [14] = target: Gal(a1-4)Gal(b1-4)GlcNAc(b1-2)Man(a1-3)[Gal(a1-4)Gal(b1-4)GlcNAc(b1-2)Man(a1-6)]Man(b1-4)GlcNAc(b1-4)GlcNAc
# Outline: as §1
# [15] = target: Gal(a1-4)Gal(b1-4)GlcNAc(b1-3)Gal(b1-4)Glc
# Outline: as §1
# Gal(a1-4)GlcNAc = target: Gal(a1-4)GlcNAc
# Outline: as §1
# Gal(a1-6)Glc = target: Gal(a1-6)Glc
# Outline: as §1
# Gal(b1-2)Gal = target: Gal(b1-2)Gal
# Outline: as §1
# Gal(b1-3)Gal = target: Gal(b1-3)Gal
# Outline: as §1
# Gal(b1-3)Gal(b1-4)GlcNAc = target: Gal(b1-3)Gal(b1-4)GlcNAc
# Outline: as §1
# Gal(b1-3)GalNAc = target: Gal(b1-3)GalNAc
# Outline: as §1
# [16] = target: Gal(b1-3)GalNAc(a1-3)[Fuc(a1-2)]Gal(b1-4)Glc
# Outline: as §1
# [17] = target: Gal(b1-3)GalNAc(a1-3)[Fuc(a1-2)]Gal(b1-4)GlcNAc
# Outline: as §1
# Gal(b1-3)GalNAc(b1-3)Gal = target: Gal(b1-3)GalNAc(b1-3)Gal
# Outline: as §1
# [18] = target: Gal(b1-3)GalNAc(b1-3)Gal(a1-4)Gal(b1-4)Glc
# Outline: as §1
# [19] = target: Gal(b1-3)GalNAc(b1-4)Gal(b1-4)Glc
# Outline: as §1
# [20] = target: Gal(b1-3)GalNAc(b1-4)[Neu5Ac(a2-3)]Gal(b1-4)Glc
# Outline: as §1
# Gal(b1-3)GlcNAc = target: Gal(b1-3)GlcNAc
# Outline: as §1
# [21] = target: Gal(b1-3)GlcNAc(a1-3)Gal(b1-4)GlcNAc
# Outline: as §1
# [22] = target: Gal(b1-3)GlcNAc(a1-6)Gal(b1-4)GlcNAc
# Outline: as §1
# Gal(b1-3)GlcNAc(b1-2)Man = target: Gal(b1-3)GlcNAc(b1-2)Man
# Outline: as §1
binder,measurement,setting,value
B1,glycan array binding signal (z-score),Gal(a1-3)Gal,-0.182
same,glycan array binding signal (z-score),Gal(a1-3)Gal(b1-3)GlcNAc,1.24
same,glycan array binding signal (z-score),[1],-0.243
same,glycan array binding signal (z-score),[2],0.126
same,glycan array binding signal (z-score),[3],-0.171
same,glycan array binding signal (z-score),[4],-0.314
same,glycan array binding signal (z-score),[5],-0.267
same,glycan array binding signal (z-score),Gal(a1-3)Gal(b1-4)Glc,-0.069
same,glycan array binding signal (z-score),Gal(a1-3)Gal(b1-4)GlcNAc,-0.294
same,glycan array binding signal (z-score),[6],-0.138
same,glycan array binding signal (z-score),[7],0.109
same,glycan array binding signal (z-score),[8],-0.145
same,glycan array binding signal (z-score),[9],-0.245
same,glycan array binding signal (z-score),[10],-0.215
same,glycan array binding signal (z-score),[11],-0.071
same,glycan array binding signal (z-score),Gal(a1-3)GalNAc,-0.17
same,glycan array binding signal (z-score),[12],-0.221
same,glycan array binding signal (z-score),[13],1.12
same,glycan array binding signal (z-score),Gal(a1-4)Gal(b1-4)Glc,-0.218
same,glycan array binding signal (z-score),Gal(a1-4)Gal(b1-4)GlcNAc,-0.303
same,glycan array binding signal (z-score),[14],-0.173
same,glycan array binding signal (z-score),[15],-0.286
same,glycan array binding signal (z-score),Gal(a1-4)GlcNAc,-0.257
same,glycan array binding signal (z-score),Gal(a1-6)Glc,-0.279
same,glycan array binding signal (z-score),Gal(b1-2)Gal,-0.054
same,glycan array binding signal (z-score),Gal(b1-3)Gal,-0.195
same,glycan array binding signal (z-score),Gal(b1-3)Gal(b1-4)GlcNAc,-0.216
same,glycan array binding signal (z-score),Gal(b1-3)GalNAc,0.114
same,glycan array binding signal (z-score),[16],-0.158
same,glycan array binding signal (z-score),[17],-0.099
same,glycan array binding signal (z-score),Gal(b1-3)GalNAc(b1-3)Gal,-0.131
same,glycan array binding signal (z-score),[18],-0.238
same,glycan array binding signal (z-score),[19],-0.094
same,glycan array binding signal (z-score),[20],-0.256
same,glycan array binding signal (z-score),Gal(b1-3)GlcNAc,-0.186
same,glycan array binding signal (z-score),[21],2.03
same,glycan array binding signal (z-score),[22],0.088
same,glycan array binding signal (z-score),Gal(b1-3)GlcNAc(b1-2)Man,0.065
